From the supplement of paper PMC11417369
The list shows a part of the results.

test system: PfHDP1 homeodomain (GST-tagged); test: gcPBM binding intensity (ln(normalized median fluorescence intensity)); higher = stronger DNA binding
Summary of the method: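 Binding of GST-tagged P. falciparum DNA-binding domains, expressed in E. coli and used at about 25 μg on average, was carried out for 1 h in 1× PBS containing 1% milk, 0.2 mg/ml BSA, 0.5% salmon testes DNA and 0.03% Triton X-100. The target was an Agilent 4 × 180k array of primer-extended double-stranded 36-bp intergenic genomic probes plus negative controls, read with Alexa488 anti-GST antibody at 488 nm. Binding intensity is the highest Masliner-normalised natural-log median intensity across replicate spots of either probe orientation.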

Row | Sequence | gcPBM binding intensity (ln)
1 | AAAAAGAAATCCAATACACACCTTCAAAATGGGTAT [CACACA_site4978] | 6.3
2 | AAAAAACTATTATGTGCATGCACAAGTCAGGTAAAT [TGCATGCA_site791] | 11.3
3 | ATAAAAGAATAAATAAAACACATATATATATATATA [XGTACX_negctrl_site31] | 9.58
4 | ATATAAATCAAAAACGCACACATAAATATTTATATA [CACACA_site2442] | 7.19
5 | TTTTTTTTTTTTTTGGTGCACATAGAAATTCTAAAA [GTGCAC_site9809] | 10.2
6 | TTATAAATGTATTTATGTACATATAAATATATATAA [XGTACX_site2970] | 6.2
7 | AAAAGAAAATAAGAAACACACAAAAATATATAAAAA [CACACA_site3697] | 6.81
8 | TTCTTTGCTTTTCAAACACACAAAAGTTATTATATT [CACACA_site521] | 6.74
9 | TTTAGTTTTTATATAGCACACATATTGTGATTATGT [CACACA_site8316] | 6.82
10 | AATTTATAAAAGAAGAGGACACATATAAATATAAAT [XGTACX_site59] | 6.8
11 | TATATTAATGTTCATAGTACGTATGATTAGGAAAAA [XGTACX_site616] | 7.12
12 | ATATTCATATATTTACGTACATACATTTATATATTT [XGTACX_site7644] | 6.67
13 | ATTTAAAAAAAAACGGAATTTTTTTTTTTTTTAAAG [XGTACX_negctrl_site91] | 5.88
14 | ACATATATGTATAATACACACACTAATATATAATTG [CACACA_site1966] | 6.62
15 | GGAAAGACAGTTCACAGTACCCAGGAAATCTGCGGA [XGTACX_site4933] | 5.86
16 | AATAATTAACAAAAAAAAAAAAAAAAAAAAAAAAAA [GTGCAC_negctrl_site255] | 6.21
17 | TATAAATAAATATGTACACACATATATACCTTTCAT [CACACA_site7291] | 6.33
18 | TATGTATTATATATTTGTACTCATTCTAATTCCTTC [XGTACX_site7294] | 6.47
19 | TATTAATGATAAGAATATTTTATATGATACATGCAT [CACACA_negctrl_site923] | 6.08
20 | TATCTTTATATATAGTGTACACATTAAACAAATCTC [XGTACX_site7381] | 6.71
21 | ACTAAAAAAATAAACACACAGATTTATATAATATAT [CACACA_site4884] | 6.3
22 | TCTATACCTATTCTTACACACATATGTATAAATATA [CACACA_site6407] | 6.98

Row | Sequence | gcPBM binding intensity (ln)
23 | TTGACAACTCTTTTCATACACACAAAAAAAAAAAAA [CACACA_site2362] | 6.32
24 | ACAAAATATATAGACACACAAACACAAATATGTTTT [CACACA_site3016] | 6.43
25 | TAATACAGATTAAAAGGTACACTTATTTGGTATTAT [XGTACX_site4966] | 6.38
26 | TTAATATGAATTATTACATGCAACTAAATATATTTA [TGCATGCA_site490] | 6.8
27 | TACAACCTTTAGACAAGTACAAGAATTATATGTGGC [XGTACX_site4581] | 6.73
28 | TGTATATCACATGAGAGGTGGAGATGGGGATAAATA [CACACA_negctrl_site1148] | 6.52
29 | ATACAATTCTTACATTGTACTTTTTTTTTTTATCAC [XGTACX_site6327] | 6.07
30 | TACATAAATTAAAACACACACACACCCAAAAAAAAA [CACACA_site2261] | 6.86
31 | GTGTATATTATTTTATCACACATGTACATATGTTAA [CACACA_site5473] | 6.47
32 | AAAAAATAAAAAGATACACACATATGTATAATATAC [CACACA_site1496] | 6.83
33 | AATAAAAAAATATGAAATTATGACATATAGCATTTG [TGCATGCA_negctrl_site160] | 6.09
34 | AATTTGATAATATCATGTACATGAAAGAATTCATGA [XGTACX_site8463] | 6.27
35 | GTTAAAAGAAAAATATGTACATAAAAAAATTAGAAA [XGTACX_site578] | 6.79
36 | TTTTCAATTAAAAAAAAATTATATTTTATTATTACA [CACACA_negctrl_site142] | 5.65
37 | AAGATGGTAAAGAATTGTACGCGCATATATATATTT [XGTACX_site3904] | 7.61
38 | TATATATATATATGATGTACACATTTTATTATTTGT [XGTACX_site1147] | 9.27
39 | CTCTTGTTTCCATATAGTACGTAATAATATATACAA [XGTACX_site2428] | 6.64
40 | AAAAATATAAACAAACGTACGAAGTGATGATATATT [XGTACX_site2242] | 6.6
41 | TATTATATTTTTATTTGTACGTAAAATTAAGTTATG [XGTACX_site2405] | 6.54
42 | TTTTTTGTTAAGTTGGTGCAAACAATAGTTATTGAC | 10.7
43 | GGAGCACCCAGACACACACACACATATATATATATA [CACACA_site336] | 9.25
44 | TATATCTACTACACACGTACACAAAATAAGATACCT [XGTACX_site7886] | 6.85

Row | Sequence | gcPBM binding intensity (ln)
45 | AAAAAAAAAAAACACACACACACACCCATATATAAA [CACACA_site1170] | 6.79
46 | ACATAAAATTATTATACATGCATATTTAATTTTTTC [TGCATGCA_site353] | 6.44
47 | TGTAGTCTGGAGAAGAGTACATAGTATCTGGTAGCT [XGTACX_site2029] | 6.4
48 | GAATTGTATTGGTACTGTACAATTAAATTAAAAAAA [XGTACX_site1891] | 6.36
49 | TTTTTTTTTTTTACATGTACTTATTTTAAATATAAA [XGTACX_site805] | 6.84
50 | TATATTTATTTAAAAACATGCATTTTTTTTTTCCGT [TGCATGCA_site44] | 6.5
51 | ATTTTTTTGGTAATTTGTACATAATATATACATAAT [XGTACX_site3742] | 6.79
52 | AAAATTAAAACCTACACACACATTTAAAAAAAAAAA [CACACA_site3068] | 6.61
53 | TATATTATAGGTTGTGTACACATATTATATAGTACT [CACACA_site4583] | 6.9
54 | ATATATTTATAGACTTGTACATATATATACGATATA [XGTACX_site8890] | 6.2
55 | AAGGCATGACTATCTGCACACATAAAAATAAGAAAT [CACACA_site8180] | 7.7
56 | AATTTTTTTTTTTTGTGTCCTCATAATTCTTCATTC [XGTACX_site5042] | 6.14
57 | TAAAAAAAAATATAATGTACGTATAAATATATATTA [XGTACX_site5085] | 6.49
58 | TAAACATAATAATATACACACATATATTGATATATA [CACACA_site2144] | 6.37
59 | TTCCTGTTAATTACAACACACAATTTTTATTTTATG [CACACA_site779] | 6.91
60 | TAATTAAATACATTAACACACACACTAATATATACA [CACACA_site8938] | 7.02
61 | TAACTATTATAAAAATGTACAAATGAAAATATTTTT [XGTACX_site1438] | 6.88
62 | AAAATAAAAATAAAAGCACACATAAATATATATATA [CACACA_site8409] | 8.55
63 | TACCAAAAAAAAAAAAATAAAAATAAAAAAAAAAAT [CACACA_negctrl_site1714] | 6.27
64 | TAAAAGTTTTTATACATACACACCTATAAATTAAGT [CACACA_site2446] | 6.69
65 | CTTTATTATAAGATTACACACATGTCTTATAATTTA [CACACA_site5715] | 6.58
66 | TTTAAAAAATTATATTCACACACATACACATATATA [CACACA_site8076] | 6.95

Row | Sequence | gcPBM binding intensity (ln)
67 | ATAAATCGATAAAATATATGCTACATGAATAAATAA [XGTACX_negctrl_site604] | 6.45
68 | ATATTTTTATATAATGAACACACATATTATATCATT [CACACA_site8446] | 6.22
69 | TAAAAGGATACATATACACACATATATATATATATA [CACACA_site2791] | 9.36
70 | TTCTTCAACAAAAAAATAAAAATAAAATAATAAAAA [GTGCAC_negctrl_site619] | 6.66
71 | ATACACATAACATATATATATATATATATATATATC [CACACA_negctrl_site278] | 7.51
72 | ATCTTTCCTTTTGCATGTACATATGGAAATACTTTT [XGTACX_site6995] | 6.78
73 | ATAATTAAGTTATGTGTGCACTGTTAAAAATAAATG | 9.94
74 | TATATATATATAAACGCATGTAATTTATACACACAT [TGCATGCA_site946] | 8.95
75 | TTTTTTATTTTTTACATATTTAGCTCATATTTATAT [GTGCAC_negctrl_site491] | 6.84
76 | AATATAATATCTATAATATAAAAAAAACAAAAAAAA [CACACA_negctrl_site875] | 6.28
77 | TTTTATGATATTTACACACAAACGTGAGATAGCTCA [CACACA_site2311] | 6.57
78 | AAAATATGTTAATATTGTACTTAAATAAAAAAAATA [XGTACX_site7152] | 6.32
79 | ATTCTTAAAATAAAATGTACGAAAAAAAAAAAAAAA [XGTACX_site1657] | 6.45
80 | AGAATTATATACACAAGTACATAATGACATATATAT [XGTACX_site5617] | 6.69
81 | TAGATGTATTTTTAAAGTACTTTTTAATATATAATC [XGTACX_site1431] | 5.85
82 | TAAAAAATTATATTCACACACATACACATATATATA [CACACA_site545] | 6.82
83 | TTACAATATAATAAATGTACATATAACAAATATATA [XGTACX_site2199] | 6.71
84 | CGACTTTTAAAATATACACACATATAAATAAATATA [CACACA_site6523] | 6.55
85 | TTTTTTTTTTTTTGTAGTACATACTATTTTATTAAT [XGTACX_site950] | 6.36
86 | TTTCTTAAACCGTACAGTACACACCTTTATAATGTT [XGTACX_site434] | 6.94
87 | TAAGCGTTTTTTAAAACACACATAAGAACTAAATGA [CACACA_site1670] | 6.41
88 | TATTTTCCATGAGGTAGTACACATTAAAAAATCGTT [XGTACX_site6887] | 6.37
